{"source": "the supplement of paper PMC11417369", "note": "± gives the standard deviation of the averaged measurements. Some of the results follow.", "data": [{"tested_on": "PfAP2-I AP2 domain 3 (GST-tagged)", "experiment": "gcPBM binding intensity (ln(normalized median fluorescence intensity)); higher = stronger DNA binding", "in_short": "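The highest Masliner-normalised natural-log median intensity across replicate spots of either probe orientation is reported as binding intensity. GST-tagged P. falciparum DNA-binding domains expressed in E. coli were applied for 1 h to an Agilent 4 × 180k array of primer-extended double-stranded 36-bp intergenic genomic probes plus negative controls, and bound protein was detected with Alexa488 anti-GST antibody and scanned at 488 nm.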", "values": [{"sequence": "TTAATTAAGAAACACACACACATATATATATATATT [CACACA_site2290]", "gcPBM binding intensity (ln)": "7.74 ± 0.57"}, {"sequence": "ATATGTATGTATGTATGTACTTATTTATTTATTAAT [XGTACX_site8018]", "gcPBM binding intensity (ln)": "7.75 ± 0.35"}, {"sequence": "TACATAAATTAAAACACACACACACTAATAAAAAAA [CACACA_site8712]", "gcPBM binding intensity (ln)": "8.05 ± 0.54"}, {"sequence": "TAGCTCGTTCGGAGCACACACATATATATATATATA [CACACA_site1948]", "gcPBM binding intensity (ln)": "9.76 ± 0.4"}, {"sequence": "ATTCAATATATATACACACACACTTTTAATAATTAA [CACACA_site3770]", "gcPBM binding intensity (ln)": "8.1 ± 0.43"}, {"sequence": "GTTTTATTTTGTTTCTATTTGACACATGTGATTATT [CACACA_negctrl_site1246]", "gcPBM binding intensity (ln)": "8.11 ± 0.61"}, {"sequence": "CATATATATAATTATTCACACAATAGTTAAAAGTAT [CACACA_site5302]", "gcPBM binding intensity (ln)": "8.01 ± 0.55"}, {"sequence": "TTTTTTTTTGAATATTGTACATATATATTACTTTTA [XGTACX_site5520]", "gcPBM binding intensity (ln)": "7.7 ± 0.66"}, {"sequence": "AAAAAATTATATAAATGTACATTTTGGCTAGACATG [XGTACX_site5977]", "gcPBM binding intensity (ln)": "7.68 ± 0.57"}, {"sequence": "AAAGAGAACAGAAGTACACACATGTTCTTTTAGTAA [CACACA_site5557]", "gcPBM binding intensity (ln)": "7.59 ± 0.49"}, {"sequence": "ATATTCTGCTGTTTAGTGCAATTATGAAATTATGAT", "gcPBM binding intensity (ln)": "9.85 ± 0.23"}, {"sequence": "TTTTTTTTTCTTTGGTGTACAATGTAATAGAAAATA [XGTACX_site227]", "gcPBM binding intensity (ln)": "8.11 ± 0.31"}, {"sequence": "AAAAAAAACAAACACACACACAAATATTTATATATT [CACACA_site436]", "gcPBM binding intensity (ln)": "7.55 ± 0.58"}, {"sequence": "TAAAAAGAAATGTAAAGTACAAATTTGAATAACATG [XGTACX_site7981]", "gcPBM binding intensity (ln)": "7.69 ± 0.59"}, {"sequence": "TAAAAAATAAAAATTGCACACTAAAAAATTACCCAC [CACACA_site5823]", "gcPBM binding intensity (ln)": "8.8 ± 0.33"}, {"sequence": "TTGATTTTTATTTTTAAAATAAATAAATTTCAAATG [TGCATGCA_negctrl_site199]", "gcPBM binding intensity (ln)": "7.35 ± 0.37"}, {"sequence": "ATATGTATTTATATATGTTTGATTTTTTTTTTTTTT [TGCATGCA_negctrl_site506]", "gcPBM binding intensity (ln)": "7.71 ± 0.26"}, {"sequence": "CATACAGACATACATACACACATACCTATAAATATA [CACACA_site6995]", "gcPBM binding intensity (ln)": "7.95 ± 0.39"}, {"sequence": "AAATGAAATAAAATCATATATTTATAATTATTATAA [TGCATGCA_negctrl_site612]", "gcPBM binding intensity (ln)": "7.27 ± 0.41"}, {"sequence": "AGGAAAAAAGAAAAAACACACATAAATATATATATA [CACACA_site3085]", "gcPBM binding intensity (ln)": "9.045 ± 0.021"}, {"sequence": "AAAAAACACGCACATACACACAAAAATGTTATAAAT [CACACA_site6188]", "gcPBM binding intensity (ln)": "8.2 ± 0.38"}, {"sequence": "ATCTCATAAAACCGCACACACATAAAATTTGCATTA [CACACA_site3891]", "gcPBM binding intensity (ln)": "8.56 ± 0.31"}, {"sequence": "TTATATTTTTTAATTACACACAATTTTTATAAATAT [CACACA_site4148]", "gcPBM binding intensity (ln)": "7.69 ± 0.45"}, {"sequence": "CTAGTAAAAAATGCAAGTACATACATTATAAGTATA [XGTACX_site3908]", "gcPBM binding intensity (ln)": "7.67 ± 0.47"}, {"sequence": "ATATTGGAGCACAACACACACAAGTATAAATATGGA [CACACA_site6834]", "gcPBM binding intensity (ln)": "8.39 ± 0.15"}, {"sequence": "ATTTCATATACAAATTGTACATACAATTTTATGTTT [XGTACX_site3240]", "gcPBM binding intensity (ln)": "7.7 ± 0.54"}, {"sequence": "TTAAAAATAATATTATGTACTAAGAATAAATATATA [XGTACX_site3100]", "gcPBM binding intensity (ln)": "7.62 ± 0.4"}, {"sequence": "TCTTGTAAATATATGTGTATATTATATTTTATTATA [TGCATGCA_negctrl_site117]", "gcPBM binding intensity (ln)": "7.41 ± 0.48"}, {"sequence": "TGTTAAAATAAAATCTATTACATTTTTATGGTTATA [XGTACX_negctrl_site525]", "gcPBM binding intensity (ln)": "7.18 ± 0.46"}, {"sequence": "TGCAAGGAAAAACACACACACACATAAATGTATATA [CACACA_site751]", "gcPBM binding intensity (ln)": "7.66 ± 0.45"}, {"sequence": "CTTAATATTCTTTAAAGTACACAAAATAAGAATATA [XGTACX_site5489]", "gcPBM binding intensity (ln)": "7.79 ± 0.21"}, {"sequence": "AATATATATATATTCACACATAAAAAAGTAAAAAAA [CACACA_site5040]", "gcPBM binding intensity (ln)": "7.83 ± 0.71"}, {"sequence": "CACACGCACGAACACACACACACACGCATATAAATA [CACACA_site6302]", "gcPBM binding intensity (ln)": "8.54 ± 0.2"}, {"sequence": "TATCTCATAGTATACACACACACACCCACCCATATA [CACACA_site1739]", "gcPBM binding intensity (ln)": "8.38 ± 0.54"}, {"sequence": "AGCTCTTGTCATTTTGCACACACACCCGTATAGGTT [CACACA_site3056]", "gcPBM binding intensity (ln)": "9.535 ± 0.078"}, {"sequence": "TCTTTTTTTTTTAAACGTACATTGCATTATCACGTA [XGTACX_site6873]", "gcPBM binding intensity (ln)": "8.53 ± 0.68"}, {"sequence": "ATCCATTATTTTTGTTGTACGGGTAACTTTAAAAAG [XGTACX_site2226]", "gcPBM binding intensity (ln)": "8.05 ± 0.48"}, {"sequence": "AAAAGGGAAATAAAATAAAAAAAGAAACATATATAG [CACACA_negctrl_site455]", "gcPBM binding intensity (ln)": "7.72 ± 0.76"}, {"sequence": "GATTCTTCACCGTACTCACACATATATATATATATA [CACACA_site5665]", "gcPBM binding intensity (ln)": "9.41 ± 0.29"}, {"sequence": "TAATTATATGTATACACACACATACATTTACATAAC [CACACA_site3238]", "gcPBM binding intensity (ln)": "7.94 ± 0.59"}, {"sequence": "TTAATTTCTATATACGCATGTATGAATAAGATATTG [TGCATGCA_site202]", "gcPBM binding intensity (ln)": "7.42 ± 0.49"}, {"sequence": "ATTTTTTTATAAGAAAATTTCTAACGTTAAAAAAAA [CACACA_negctrl_site1367]", "gcPBM binding intensity (ln)": "7.51 ± 0.53"}, {"sequence": "CAAACAAACAAATATACACACTTTTGTATAAAGTAA [CACACA_site5860]", "gcPBM binding intensity (ln)": "7.42 ± 0.49"}, {"sequence": "TATAATTATATATATAGTACAGATTTGTTATGTTTA [XGTACX_site7724]", "gcPBM binding intensity (ln)": "7.54 ± 0.26"}, {"sequence": "TATCATTTCATATCAAGTACAAACATTTTACATATA [XGTACX_site5307]", "gcPBM binding intensity (ln)": "7.84 ± 0.57"}, {"sequence": "TTTTAATTAAGACACACACACACATATAAATATGTA [CACACA_site7144]", "gcPBM binding intensity (ln)": "8.12 ± 0.35"}, {"sequence": "ATAATAATATATATTGTACACACAAAATGGGAAAAA [CACACA_site8568]", "gcPBM binding intensity (ln)": "8.16 ± 0.66"}, {"sequence": "TATATATATATAATAGTGCATAAATAAATATATAAA", "gcPBM binding intensity (ln)": "11.2 ± 0.45"}, {"sequence": "ATTAAGACACATTGCACACGTGCACCCATAGAAAAA [CACACA_site408]", "gcPBM binding intensity (ln)": "11.02 ± 0.099"}, {"sequence": "TGAAAAAGGAAAAAAAAAAAAAAAAAAAAAACGAAA [GTGCAC_negctrl_site555]", "gcPBM binding intensity (ln)": "7.5 ± 0.52"}, {"sequence": "TATTTATTATTAAGATGTACATAAAACACTGAATAA [XGTACX_site4246]", "gcPBM binding intensity (ln)": "8.16 ± 0.12"}, {"sequence": "GACCATATGAATAATGCACACGTTTTAAAATATTAA [CACACA_site5312]", "gcPBM binding intensity (ln)": "10.6 ± 0.51"}, {"sequence": "GGGAAAATATTTGGGTGTACAAACAAATTAGCTAGC [XGTACX_site6795]", "gcPBM binding intensity (ln)": "8.21 ± 0.49"}, {"sequence": "TATGATTTCACATAATGTACTTGCTAATTCGTGAAT [XGTACX_site1408]", "gcPBM binding intensity (ln)": "7.51 ± 0.54"}, {"sequence": "ATATAAATAAACAGGTGTACTATAATGTTCATAGTA [XGTACX_site1553]", "gcPBM binding intensity (ln)": "7.84 ± 0.57"}, {"sequence": "AAGAAAATATAAAATGCACACTATAAATTGTATTTA [CACACA_site4257]", "gcPBM binding intensity (ln)": "8.75 ± 0.16"}]}]}
